Data reported in PubChem BioAssay AID1963576 (National Center for Advancing Translational Sciences (NCATS), 2024).
Out of some 46,000 compounds screened, about 60 (0.1%) were called active. Not shown: some 3% with an inconclusive outcome. Calls follow the shape of the dose curve; as a rule, active = well fitted inhibition curve with a large enough effect; inconclusive = small, poorly fitted or top-dose-only effect; inactive = no such curve, though single readings can be large or run the other way. This is one part of the list.

assay: Primary qHTS assay for Inhibitors of ovarian cancer metastasis using an organotypic tumor microenvironment (TME) model.; also: nearly all actives have a fitted effect of over 65% in size;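 as to activity change, negative = inhibition: plate controls were DMSO wells for no effect and tomatine positive control wells for full effect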; conditions: SKOV3ip1-GFP adhesion/invasion on 3D omental model, fluorescence; series mostly up to 45.8 µM; activity change, negative = inhibition: at the top concentration
How it was run: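 Primary human omental fibroblast/mesothelial 3D culture pre-formed 48 h. SKOV3ip1-GFP cells added with compounds (0.36-46 umol/L), incubated 2 h RT/16 h 37 C, fixed; GFP cells quantified at 488/509 nm.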

Activity change, negative = inhibition, inactive:
O=C(NCc1cccc(Cl)c1)c1cc2ccc3cccnc3c2[nH]1 -7.1%
Cc1cc(C)c(NC(=O)CSc2nc3ccccc3nc2N2CCCCC2)c(C)c1 -2.82%
CC(C(C)N1CC(=O)NC(=O)C1)N1CC(=O)NC(=O)C1 (stereo unspecified) 4%
CCOC(=O)c1ccc(CN(Cc2ccc(F)cc2)S(=O)(=O)c2cc(C(=O)Nc3cccc(C(F)(F)F)c3)ccc2F)cc1 4.8%
COc1cc2c(=O)c(S(=O)(=O)c3ccc(F)cc3)cn(Cc3ccc(Cl)cc3)c2cc1OC 2.77%
CCOc1ccc(NC(=O)CN2C(=O)C(c3ccccc3)=NC23CCC(C)CC3)cc1 (stereo unspecified) -13.4%
O=C(NC1CCCCCC1)c1ccc2c(c1)sc1nc(-c3ccc(F)cc3)cn12 2.24%
CCCN1C(C(=O)c2ccccc2)=C(OC(=O)COc2ccccc2)c2ccccc2S1(=O)=O -23.4%
Cc1ccc(Cl)cc1NC(=O)C(C)n1nnc2sc3c(c2c1=O)CCCC3 (stereo unspecified) -2.08%
Cc1cccc(N2CCN(S(=O)(=O)c3ccc4c(c3)CCCN4C(=O)C3CCC3)CC2C)c1 (stereo unspecified) -8.66%
COc1ccc(C2C(C(N)=O)=C(C)Nc3nc(CCCO)nn32)c(OC)c1 (stereo unspecified) -1.47%
CC(=O)c1ccc(NC(=O)c2noc3c2CCc2ccccc2-3)cc1 -1.28%
O=C(Nc1ccc(C(=O)OCc2cc(=O)n3c4c(sc3n2)CCCC4)cc1)c1ccccc1 -9.26%
CCOc1ccc(NC(=O)N2CCC(C(N)=O)(N3CCCCC3)CC2)cc1 3%
Cc1nc(NC(=O)N2CCC[C@@H]2C(N)=O)sc1-c1ccnc(C(C)(C)C(F)(F)F)c1 -11.1%
COc1cccc(Cn2nnc(C(=O)Nc3cc(C)ccc3C)c2N)c1 -7.69%
CCCS(=O)(=O)c1c(S(=O)(=O)CCC)c2cc(CC)ccn2c1C(=O)c1ccc(OC)cc1 -4.63%
COc1ccc(CCNC(=O)c2cnc3ccc(C)cn3c2=O)cc1 10.3%
Cc1ccc2nc(NC(=O)CSc3nccn3Cc3ccc(Cl)cc3)sc2c1 -17.8%
O=C(NC1CC(=O)N(c2cccc(F)c2)C1)c1ccc(S(=O)(=O)N2CCCC2)cc1 (stereo unspecified) -1.92%
O=C(CCc1nc(-c2cccs2)no1)Nc1ccccc1[N+](=O)[O-] 2.3%
O=C(Cn1c(=O)n(Cc2ccccc2)c(=O)c2sc3ccccc3c21)NCc1ccccc1Cl 22.5%
CCOc1ccccc1CNC(=O)Cn1c(-c2ccccc2)cc(C(C)=O)c1C -0.005%
Cc1cccc(NC(=O)c2cc(S(=O)(=O)N3CCc4ccccc43)ccc2F)c1C 2.1%
CCN(CC)c1cc(C)c2cc(NC(=O)c3cccc(F)c3)ccc2n1 -5.67%
Cc1ccc(N2C(=O)CSC23C(=O)N(CC(=O)NCCc2ccccc2)c2ccccc23)cc1C (stereo unspecified) 48.6%
CCCn1cc(S(=O)(=O)c2ccccc2)c(=O)c2cc(F)c(N3CCCCC3)cc21 4.99%
CCOc1ccccc1NC(=O)c1c(NC(=O)COc2ccccc2)sc2c1CCCCC2 -27.4%
CC(NC(=O)CCCC1=NS(=O)(=O)c2ccccc2N1)c1ccccc1 (stereo unspecified) -20.8%
CCOC(=O)c1cnc2c(ccc3ccccc32)c1Nc1ccccc1OCC 1.57%
COc1ccc(OC)c(-c2cc(C(=O)NCCc3ccccc3)c3c(-c4ccc(C)cc4)[nH]nc3n2)c1 23.8%
COCCCNC(=O)CS(=O)Cc1nc(-c2cccc(C)c2)oc1C (stereo unspecified) 6.16%
CCOC(=O)c1cc(-c2ccccc2)n(-c2cccc(C(=O)Nc3cccc(F)c3)c2)c1C -12.3%
COc1ccc(C(=O)Nc2nnc(S(=O)(=O)N3CCCCCC3)s2)cc1OC 5.14%
CCC(C)n1c(=N)c(C(=O)NCc2ccccc2)cc2c(=O)n3cc(C)ccc3nc21 (stereo unspecified) 1.77%
CCc1cccc(C)c1NC(=O)CC1Oc2ccc(C)cc2NC1=O (stereo unspecified) -25.6%
COc1ccc(CCNC(=O)c2sc3nc4n(c(=O)c3c2C)CCCC4)cc1OC 13.4%
COc1ccc(C(=O)c2oc3ccccc3c2NC(=O)COc2ccccc2)cc1 20.7%
Cc1ccc(CNC(=O)CCc2c(C)nc3c(c(C)nn3-c3ccccc3)c2C)cc1 -9.84%
O=C(COc1ccc(Cl)cc1)OCc1cc(=O)n2nc(-c3cccs3)sc2n1 9.63%
CC(C)n1c(=N)c(C(=O)NCc2cccnc2)cc2c(=O)n3ccccc3nc21 -15%
CCC(CC)C(=O)Nc1ccc(-c2cn3cccnc3n2)cc1 -26.2%
Cc1cccc(-c2nc3scc(CCNC(=O)c4ccc(Br)o4)n3n2)c1 5.87%
Nc1nc2c(c(=O)[nH]1)N(C=O)[C@H](CNc1ccc(C(=O)N[C@@H](CCC(=O)O)C(=O)O)cc1)CN2 0.33%
CNC(=O)C1CCC(Cn2c(=O)c3sccc3n(CC(=O)NCc3cccc(OC)c3)c2=O)CC1 (stereo unspecified) -2.61%
COc1cccc(C(=O)N2CCc3c([nH]c4ccccc34)C2c2ccc(SC)cc2)c1 (stereo unspecified) 0.43%
COc1ccccc1NC(=O)CSc1nnc2c3ccccc3n(C(C)C)c2n1 -8.13%
CCOC(=O)N1CCN(c2ncc3c(n2)CC(c2ccccc2O)CC3=O)CC1 (stereo unspecified) 1.6%
COc1ccc(CCNC(=O)CCc2c(C)nc3cc(-c4ccccc4OC)nn3c2C)c(OC)c1 7.91%
COc1ccc(CNC(=O)CN2C(=O)COc3ccc(S(=O)(=O)NC4CCCC4)cc32)cc1 -3.7%
CCn1c(=O)c2cc(C(=O)N(CC(C)C)CC(C)C)sc2c2ccccc21 6.19%
CCOC(=O)c1cccc(NC(=O)Cn2c(=O)nc(-c3ccccc3F)c3cc(Cl)ccc32)c1 -9.46%
COc1cccc(CNC(=O)CCCN2C(=O)CCn3nc(-c4cccn4C)cc32)c1 2.63%
Cc1ccc2nc(CSc3nnc(NC(=O)c4cccc(Br)c4)s3)cc(=O)n2c1 8.58%
CCN(C(=O)CSc1nc2ccccc2n1CC(=O)NCc1ccc(OC)cc1)c1ccccc1 11.1%
Cc1ccc(CNc2ncnc3c2nc2n3CCCC2)cc1 24.9%
COc1ccc(NC(=O)CC2C(=O)N(c3ccc(F)cc3)C(=O)N2Cc2ccc3c(c2)OCO3)cc1 (stereo unspecified) 7.11%
COc1ccc(-c2c(C)nn3c(N4CCN(c5ccccc5)CC4)cc(C)nc23)cc1OC -0.308%
COc1ccc(/C=C(/C#N)c2nc(-c3ccc(-c4ccccc4)cc3)cs2)cc1OC 1.81%
CCCn1c(=N)c(C(=O)NC2CCCC2)cc2c(=O)n3cccc(C)c3nc21 -2.83%
COc1cc(NC(=O)CCn2cnc3ccccc3c2=O)cc(OC)c1 -2.27%
CCOC(=O)c1ccccc1NC(=O)n1ncc2cc(Cl)ccc21 14%
CCc1cccc(C)c1NC(=O)c1cc(S(=O)(=O)N2CCOCC2)cn1C 6.77%
COc1ccc(OCCn2c(C)nc3cc(C)c(C)cc32)cc1 -10.3%
CCOc1cccc(C(=O)Nc2ccc3oc(-c4cccnc4)nc3c2)c1 15.4%
CN1C(=O)c2ccccc2Sc2ccc(NC(=O)N3CCN(c4ccccc4F)CC3)cc21 11.2%
CCCOc1ccc(C(=O)Nc2cc(-c3nc4cc(C)cc(C)c4o3)ccc2C)cc1 -2.7%
Cc1ccc(-c2noc(-c3ccc(N4CCCCC4)c([N+](=O)[O-])c3)n2)cc1 0.523%
CC(C)NC(=O)C1CCN(C(=O)N2CCOc3ccc(Cl)cc32)CC1 0.763%
Clc1ccc(CCNC(c2nnc(-c3ccccc3)o2)c2ccccc2Cl)cc1 (stereo unspecified) -9.76%
CCOC(=O)c1c(NC(=O)c2cc(=O)c3c(C)cc(C)cc3o2)sc(C(C)=O)c1C -1.03%
CC(=O)Nc1nonc1-c1nnc(SCc2ccc(Cl)cc2)n1C -8.04%
COc1cc(-c2noc(-c3cc(C(C)C)[nH]n3)n2)cc(OC)c1OC -5.95%
Cc1cc(C)c2c(-n3cccc3)c(C(=O)NCCCN3CCCCC3C)sc2n1 (stereo unspecified) -8.98%
CCc1ccccc1Nc1ncnc2c1nc1n2CCCC1 3.06%
NS(=O)(=O)c1ccc(CCNC(=O)c2nc(SCc3ccccc3F)ncc2Cl)cc1 -1.91%

outcome, inactive:
COc1ccc(Cn2c(=O)[nH]c3cc(C(=O)N4CCN(c5cccc(Cl)c5)CC4)ccc3c2=O)cc1
Cn1c(=O)n(-c2ccc(Br)cc2F)c(=O)c2sc3ccccc3c21
Cc1ccn2c(=O)c(C(=O)NCCc3ccccc3)c(O)nc2c1
CSc1ccc(CCNC(=O)c2cnn(-c3ccccc3)c2-n2cccc2)cc1
O=C(Nc1cccc(Cl)c1)N1CCSc2ccccc21
COc1ccc(N2CCN(C(=O)C3CCCN(S(=O)(=O)c4ccc5c(c4)CCCN5C(C)=O)C3)CC2)cc1 (stereo unspecified)
Cc1ccc(NC(=O)C2CCN(c3nc4ccccc4nc3C(F)(F)F)CC2)cc1F
COc1ccc(Cl)cc1NS(=O)(=O)c1cc(Br)cc2c1N(C(=O)C1CC1)CC2
Cc1cc(C)cc(Nc2cc(C)nc3nncn23)c1
Cc1ccc(Nc2nnc(-c3cc4c(ccc5ccccc54)oc3=O)s2)cc1
COc1ccc(/C=C\c2onc(C)c2S(=O)(=O)N2CCC(C(=O)Nc3cccc(Cl)c3)CC2)cc1
CCOc1ccc(CCNC(=O)c2csc3c2CCCCC3)cc1
CCOC(=O)c1cc(-c2ccccc2)n(CCC(=O)NC2CCCCC2)c1C
CCOC(=O)c1ccc(NC(=O)CN2c3ccccc3S(=O)(=O)c3ccccc32)cc1
Cc1noc(C)c1S(=O)(=O)Nc1ccc(C(=O)Nc2ccc(Br)cc2)cc1
CCCCSCCCNC(=O)c1cn(CC)c2ccc(S(=O)(=O)N3CCCCCC3)cc2c1=O
CCn1c(SCc2ccccc2Cl)nc(=O)c2c(C(=O)OC)cc(C3CC3)nc21
CNC(=O)COc1ccc(NC(=O)c2ccc(-c3nn(C)c(=O)c4ccccc34)cc2)cc1
Cc1nn(S(=O)(=O)c2ccc(Cl)cc2)c(C)c1S(=O)(=O)N1CCCCCC1
COc1cccc(C2C(C(=O)Nc3ccccc3OC)=C(C)Nc3nc4ccccc4n32)c1 (stereo unspecified)
